Reference: the supplement of paper PMC4604168 (melanoma cell lines)
This is one part of the list. Most values come without repeats; read them as rough.

Tests used:
Assay in all cases: cell count relative to DMSO control; melanoma cells; higher = more viable cells
Conditions in all cases: library dose: low library concentration; 72 h
COLO792 = system: COLO792
COLO800 = system: COLO800
COLO829 = system: COLO829
G361 = system: G361
IPC-298 = system: IPC-298
IST-MEL1 = system: IST-MEL1
LB2518-MEL = system: LB2518-MEL
LOXIMVI = system: LOXIMVI
MEL-HO = system: MEL-HO
MZ2-MEL = system: MZ2-MEL
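Further: cell number obtained by counting DAPI-stained nuclei in high-throughput microscope images with image analysis software, screen run in 1,536-well plates.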

| Compound | cell count (COLO792) | cell count (COLO800) | cell count (COLO829) | cell count (G361) | cell count (IPC-298) | cell count (IST-MEL1) | cell count (LB2518-MEL) | cell count (LOXIMVI) | cell count (MEL-HO) | cell count (MZ2-MEL) |
| --- | --- | --- | --- | --- | --- | --- | --- | --- | --- | --- |
| Oc1nc(-c2ccc(C(F)(F)F)cc2)nc2c1CSCC2 + CCCCCCCCCCCC1=C(O)C(=O)C=C(O)C1=O [Embelin] (first compound 2 µM, partner dose 1.2 µM) | 89.2% | 88.6% | 93.9% | 91.8% | 109% | 101% | 106% | 104% | 92.6% | 98.9% |
| N#Cc1c(O)c2c(-c3ccc(-c4ccccc4O)cc3)csc2[nH]c1=O + CCCCCCCCCCCC1=C(O)C(=O)C=C(O)C1=O [Embelin] (first compound 2 µM, partner dose 1.2 µM) | 109% | 115% | 76.4% | 117% | 108% | 101% | 118% | 135% | 99.1% | 106% |
| O=S(=O)(c1ccccc1)N(CC(F)(F)F)c1ccc(C(O)(C(F)(F)F)C(F)(F)F)cc1 + O=C(O)C(=O)Nc1sc2c(c1C(=O)O)CCNC2 [TCS401] (first compound 1.4 µM, partner dose 1.66667 µM) | 111% | 114% | 98% | 98.6% | 90.8% | 103% | 91.6% | 139% | 109% | 105% |
| Oc1cc(-c2nc(-c3ccccc3)[nH]c2-c2ccncc2)ccc1Cl + CC(C)CCN1c2nc(Nc3cc(F)c(O)c(F)c3)ncc2N(C)C(=O)C1C [BID1870] (first compound 0.2 µM, partner dose 0.2 µM) | 101% | 103% | 92.6% | 88.2% | 105% | 91.3% | 130% | 118% | 93.9% | 95.7% |
| COC(=O)c1sccc1S(=O)(=O)Nc1ccc(Nc2ccccc2)cc1OC + c1cc(-c2cnn3cc(-c4ccc(OCCN5CCCCC5)cc4)cnc23)ccn1 [Dorsomorphin] (first compound 1 µM, partner dose 0.4 µM) | 93.4% | 126% | 103% | 92.2% | 105% | 104% | 108% | 107% | 106% | 89.6% |
| CCN(CC)CCCCNc1ncc2cc(-c3cc(OC)cc(OC)c3)c(NC(=O)NC(C)(C)C)nc2n1 + O=c1cc(-c2cccc3c2Sc2ccccc2S3)oc(N2CCOCC2)c1 [KU55933] (first compound 0.1 µM, partner dose 1 µM) | 90.2% | 63.8% | 116% | 107% | 103% | 106% | 103% | 130% | 96.6% | 105% |
| O=C(O)C(=O)Nc1sc2c(c1C(=O)O)CCNC2 + CC(C)CCN1c2nc(Nc3cc(F)c(O)c(F)c3)ncc2N(C)C(=O)C1C [BID1870] (first compound 1.66667 µM, partner dose 0.2 µM) | 99.9% | 96.2% | 98.4% | 95.4% | 97.8% | 108% | 109% | 110% | 91.1% | 108% |
| COc1ccc(COc2ccc(Cc3cnc(N)nc3N)cc2OC)cc1 + COc1cc(N2CCC(N3CCN(C)CC3)CC2)ccc1Nc1ncc(Cl)c(Nc2ccccc2S(=O)(=O)C(C)C)n1 [NVP-TAE684] (first compound 1 µM, partner dose 0.08 µM) | 102% | 127% | 93.6% | 89.7% | 94.7% | 96.8% | 100% | 96.5% | 96.8% | 101% |
| Oc1nc(-c2ccc(C(F)(F)F)cc2)nc2c1CSCC2 + COc1cc(N2CCC(N3CCN(C)CC3)CC2)ccc1Nc1ncc(Cl)c(Nc2ccccc2S(=O)(=O)C(C)C)n1 [NVP-TAE684] (first compound 2 µM, partner dose 0.08 µM) | 82.5% | 101% | 104% | 86.8% | 98.1% | 101% | 103% | 133% | 116% | 102% |
| O=C1NC(=O)/C(=C/c2ccc(-c3ccc(F)cc3O)o2)S1 + CC(C)CCN1c2nc(Nc3cc(F)c(O)c(F)c3)ncc2N(C)C(=O)C1C [BID1870] (first compound 1 µM, partner dose 0.2 µM) | 99.4% | 128% | 98.5% | 95.1% | 92% | 103% | 106% | 56.9% | 83.7% | 100% |
| O=c1cc(-c2cccc3c2Sc2ccccc2S3)oc(N2CCOCC2)c1 + CC(C)CCN1c2nc(Nc3cc(F)c(O)c(F)c3)ncc2N(C)C(=O)C1C [BID1870] (first compound 1 µM, partner dose 0.2 µM) | 91.2% | 102% | 101% | 98.7% | 91% | 95.1% | 121% | 126% | 96% | 94.7% |
| COC(=O)c1sccc1S(=O)(=O)Nc1ccc(Nc2ccccc2)cc1OC + COc1cc2ncnc(Nc3ccc(Oc4ccccc4)cc3)c2cc1OC [SrcI1] (first compound 1 µM, partner dose 2 µM) | 92.4% | 95.9% | 102% | 87.5% | 90.5% | 98.3% | 134% | 127% | 96.3% | 84.8% |
| COc1ccc(COc2ccc(Cc3cnc(N)nc3N)cc2OC)cc1 + CCCCCCCCCCCC1=C(O)C(=O)C=C(O)C1=O [Embelin] (first compound 1 µM, partner dose 1.2 µM) | 95.4% | 72.3% | 90.3% | 93.2% | 104% | 97.1% | 98.9% | 116% | 86.8% | 98.6% |
| O=C(O)C(=O)Nc1sc2c(c1C(=O)O)CCNC2 + Oc1nc(-c2ccc(C(F)(F)F)cc2)nc2c1CSCC2 [XAV939] (first compound 1.66667 µM, partner dose 2 µM) | 80.3% | 147% | 102% | 91.2% | 92.2% | 105% | 95.3% | 97.3% | 74.5% | 97.2% |
| O=S(=O)(c1ccccc1)N(CC(F)(F)F)c1ccc(C(O)(C(F)(F)F)C(F)(F)F)cc1 + Oc1nc(-c2ccc(C(F)(F)F)cc2)nc2c1CSCC2 [XAV939] (first compound 1.4 µM, partner dose 2 µM) | 88.5% | 88.1% | 91.3% | 86.7% | 91.7% | 93.5% | 89.6% | 109% | 111% | 98.4% |
| COC(=O)c1sccc1S(=O)(=O)Nc1ccc(Nc2ccccc2)cc1OC + O=C1NC(=O)/C(=C/c2ccc(-c3ccc(F)cc3O)o2)S1 [AS252424] (first compound 1 µM, partner dose 1 µM) | 93.1% | 146% | 105% | 99.9% | 102% | 101% | 92.5% | 118% | 79.5% | 94.7% |
| N#Cc1c(O)c2c(-c3ccc(-c4ccccc4O)cc3)csc2[nH]c1=O + O=c1cc(-c2cccc3c2Sc2ccccc2S3)oc(N2CCOCC2)c1 [KU55933] (first compound 2 µM, partner dose 1 µM) | 100% | 72.4% | 94.1% | 85.5% | 91.5% | 98.5% | 108% | 130% | 112% | 102% |
| O=S(=O)(c1ccccc1)N(CC(F)(F)F)c1ccc(C(O)(C(F)(F)F)C(F)(F)F)cc1 + Oc1cc(-c2nc(-c3ccccc3)[nH]c2-c2ccncc2)ccc1Cl [L779450] (first compound 1.4 µM, partner dose 0.2 µM) | 92.6% | 90% | 78% | 79.1% | 64.7% | 114% | 94.2% | 85.6% | 85.4% | 70.8% |
| N#Cc1c(O)c2c(-c3ccc(-c4ccccc4O)cc3)csc2[nH]c1=O + c1cc(-c2cnn3cc(-c4ccc(OCCN5CCCCC5)cc4)cnc23)ccn1 [Dorsomorphin] (first compound 2 µM, partner dose 0.4 µM) | 97.4% | 92.6% | 88% | 101% | 103% | 97.5% | 93.4% | 108% | 102% | 98.8% |
| Oc1cc(-c2nc(-c3ccccc3)[nH]c2-c2ccncc2)ccc1Cl + Oc1nc(-c2ccc(C(F)(F)F)cc2)nc2c1CSCC2 [XAV939] (first compound 0.2 µM, partner dose 2 µM) | 86.8% | 96% | 84.1% | 84.9% | 88.5% | 86.8% | 91.2% | 139% | 79.7% | 80.9% |
| COC(=O)c1sccc1S(=O)(=O)Nc1ccc(Nc2ccccc2)cc1OC + Cn1cc(/C=C2\C(=O)Nc3cccnc32)c2ccccc21 [GW441756] (first compound 1 µM, partner dose 0.4 µM) | 94.1% | 64% | 91.3% | 101% | 102% | 107% | 112% | 123% | 91.5% | 91.2% |
| N#Cc1c(O)c2c(-c3ccc(-c4ccccc4O)cc3)csc2[nH]c1=O + CCN(CC)CCCCNc1ncc2cc(-c3cc(OC)cc(OC)c3)c(NC(=O)NC(C)(C)C)nc2n1 [PD173074] (first compound 2 µM, partner dose 0.1 µM) | 91.7% | 70.1% | 111% | 99.8% | 105% | 95.9% | 93.7% | 104% | 92% | 98.8% |
| CCN(CC)CCCCNc1ncc2cc(-c3cc(OC)cc(OC)c3)c(NC(=O)NC(C)(C)C)nc2n1 + CCCCCCCCCCCC1=C(O)C(=O)C=C(O)C1=O [Embelin] (first compound 0.1 µM, partner dose 1.2 µM) | 114% | 57% | 113% | 98.7% | 98% | 97.9% | 91.6% | 120% | 84.7% | 99.8% |
| c1cc(-c2cnn3cc(-c4ccc(OCCN5CCCCC5)cc4)cnc23)ccn1 [Dorsomorphin] + Cn1cc(/C=C2\C(=O)Nc3cccnc32)c2ccccc21 [GW441756] (first compound 0.4 µM, partner dose 0.4 µM) | 95.9% | 98.6% | 107% | 83.6% | 95.3% | 98.9% | 98.4% | 96.6% | 99.2% | 85.2% |
